Results are given in words; binding and its absence hold for the method and conditions named. For some assays here: Binding seen in cells or lysates may run through a third protein. Some binding calls cover weakened binding; strength is not graded here. Tags and fused reporters may be left off the sequences shown.
T1: BTB-A2.3-cYFP (Arabidopsis thaliana) (UniProt Q9ZUH1)
T1 sequence: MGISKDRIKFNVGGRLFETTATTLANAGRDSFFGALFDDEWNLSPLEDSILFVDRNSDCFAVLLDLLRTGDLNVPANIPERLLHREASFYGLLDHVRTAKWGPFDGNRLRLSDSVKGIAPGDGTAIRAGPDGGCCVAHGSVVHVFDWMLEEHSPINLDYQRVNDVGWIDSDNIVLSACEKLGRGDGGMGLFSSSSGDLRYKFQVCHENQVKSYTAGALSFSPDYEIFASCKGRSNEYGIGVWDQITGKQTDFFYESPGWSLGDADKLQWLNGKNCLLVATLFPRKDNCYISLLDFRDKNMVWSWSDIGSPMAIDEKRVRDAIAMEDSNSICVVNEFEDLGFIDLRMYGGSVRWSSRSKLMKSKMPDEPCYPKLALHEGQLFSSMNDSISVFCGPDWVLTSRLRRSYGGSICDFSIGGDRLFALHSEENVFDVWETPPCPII

T2: BTB-A2.1-cYFP (Arabidopsis thaliana) (UniProt Q9FN67)
T2 sequence: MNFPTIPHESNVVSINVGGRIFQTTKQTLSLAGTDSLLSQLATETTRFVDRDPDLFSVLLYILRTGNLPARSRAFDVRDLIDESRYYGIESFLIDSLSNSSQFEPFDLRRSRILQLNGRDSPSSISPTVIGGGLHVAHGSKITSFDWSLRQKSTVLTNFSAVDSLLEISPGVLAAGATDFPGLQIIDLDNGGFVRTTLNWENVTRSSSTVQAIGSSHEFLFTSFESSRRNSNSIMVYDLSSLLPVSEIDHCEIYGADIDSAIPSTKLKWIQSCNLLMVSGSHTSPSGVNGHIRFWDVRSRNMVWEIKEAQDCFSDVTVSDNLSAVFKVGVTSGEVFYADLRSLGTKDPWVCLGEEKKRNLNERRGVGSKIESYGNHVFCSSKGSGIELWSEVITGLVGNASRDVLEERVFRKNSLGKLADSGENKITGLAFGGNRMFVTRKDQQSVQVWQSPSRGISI

T3: BTB-A2.3 (AT2G24240), yeast two-hybrid fusion (Arabidopsis thaliana) (UniProt Q9ZUH1)
T3 sequence: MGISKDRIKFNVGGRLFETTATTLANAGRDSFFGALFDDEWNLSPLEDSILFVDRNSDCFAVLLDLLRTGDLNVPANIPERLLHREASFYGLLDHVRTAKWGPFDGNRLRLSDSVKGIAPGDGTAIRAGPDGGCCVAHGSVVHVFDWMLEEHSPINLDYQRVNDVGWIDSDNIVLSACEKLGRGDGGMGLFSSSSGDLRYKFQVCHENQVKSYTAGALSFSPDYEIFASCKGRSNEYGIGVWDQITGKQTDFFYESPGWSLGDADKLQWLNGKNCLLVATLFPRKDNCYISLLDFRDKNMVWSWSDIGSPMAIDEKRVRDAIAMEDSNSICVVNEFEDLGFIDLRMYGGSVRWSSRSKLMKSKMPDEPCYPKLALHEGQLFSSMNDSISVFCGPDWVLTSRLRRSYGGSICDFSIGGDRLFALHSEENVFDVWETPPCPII

T4: BTB-A2.1 (AT5G41330), yeast two-hybrid fusion (Arabidopsis thaliana) (UniProt Q9FN67)
T4 sequence: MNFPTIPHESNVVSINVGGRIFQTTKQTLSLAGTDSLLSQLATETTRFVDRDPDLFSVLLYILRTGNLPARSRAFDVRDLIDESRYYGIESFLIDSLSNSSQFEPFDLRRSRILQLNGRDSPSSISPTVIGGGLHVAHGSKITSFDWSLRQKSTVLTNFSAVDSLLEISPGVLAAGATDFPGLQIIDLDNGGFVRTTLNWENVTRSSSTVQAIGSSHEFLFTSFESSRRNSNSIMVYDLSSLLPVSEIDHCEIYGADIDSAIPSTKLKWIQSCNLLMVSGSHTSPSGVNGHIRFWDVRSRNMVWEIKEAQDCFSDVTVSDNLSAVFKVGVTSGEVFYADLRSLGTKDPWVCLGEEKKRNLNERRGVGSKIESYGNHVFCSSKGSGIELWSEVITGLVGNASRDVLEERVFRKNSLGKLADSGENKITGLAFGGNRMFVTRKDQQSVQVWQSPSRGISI


How the values were obtained:
[1] = molecular target: T1, BTB-A2.3-cYFP (Arabidopsis thaliana); experiment: split reporter; BiFC with cYFP and nYFP fusions in Nicotiana benthamiana leaves infiltrated with A. tumefaciens GV3101; confocal microscopy 48-72 h after infiltration
[2] = molecular target: T2, BTB-A2.1-cYFP (Arabidopsis thaliana); experiment: as above
[3] = molecular target: T3, BTB-A2.3 (AT2G24240), yeast two-hybrid fusion (Arabidopsis thaliana); experiment: two-hybrid; AD (pGADT7) and BD (pGBKT7) fusions co-transformed into yeast strain AH109; growth on SD-WL or SD-WLHA at dilutions 10^-1, 10^-2, 10^-3, 30 °C, 3-5 days
[4] = molecular target: T4, BTB-A2.1 (AT5G41330), yeast two-hybrid fusion (Arabidopsis thaliana); experiment: as above

Binder | binding [1] | binding [2] | binding [3] | binding [4]
SnRK2.3-nYFP (enzyme, UniProt Q39193 1-361) MDRAPVTTGPLDMPIMHDSDRYDFVKDIGSGNFGVARLMRDKLTKELVAVKYIERGDKIDENVQREIINHRSLRHPNIVRFKEVILTPTHLAIIMEYASGGELYERICNAGRFSEDEARFFFQQLLSGVSYCHSMQICHRDLKLENTLLDGSPAPRLKICDFGYSKSSVLHSQPKSTVGTPAYIAPEVLLRQEYDGKIADVWSCGVTLYVMLVGAYPFEDPEEPRDYRKTIQRILSVKYSIPDDIRISPECCHLISRIFVADPATRISIPEIKTHSWFLKNLPADLMNESNTGSQFQEPEQPMQSLDTIMQIISEATIPAVRNRCLDDFMTDNLDLDDDMDDFDSESEIDIDSSGEIVYAL | binds | binds |  | 
BTB-A2.3 (AT2G24240), yeast two-hybrid fusion (protein, UniProt Q9ZUH1 1-441) MGISKDRIKFNVGGRLFETTATTLANAGRDSFFGALFDDEWNLSPLEDSILFVDRNSDCFAVLLDLLRTGDLNVPANIPERLLHREASFYGLLDHVRTAKWGPFDGNRLRLSDSVKGIAPGDGTAIRAGPDGGCCVAHGSVVHVFDWMLEEHSPINLDYQRVNDVGWIDSDNIVLSACEKLGRGDGGMGLFSSSSGDLRYKFQVCHENQVKSYTAGALSFSPDYEIFASCKGRSNEYGIGVWDQITGKQTDFFYESPGWSLGDADKLQWLNGKNCLLVATLFPRKDNCYISLLDFRDKNMVWSWSDIGSPMAIDEKRVRDAIAMEDSNSICVVNEFEDLGFIDLRMYGGSVRWSSRSKLMKSKMPDEPCYPKLALHEGQLFSSMNDSISVFCGPDWVLTSRLRRSYGGSICDFSIGGDRLFALHSEENVFDVWETPPCPII |  |  | binds | binds
SnRK2.3, yeast two-hybrid fusion (enzyme, UniProt Q39193 1-361) MDRAPVTTGPLDMPIMHDSDRYDFVKDIGSGNFGVARLMRDKLTKELVAVKYIERGDKIDENVQREIINHRSLRHPNIVRFKEVILTPTHLAIIMEYASGGELYERICNAGRFSEDEARFFFQQLLSGVSYCHSMQICHRDLKLENTLLDGSPAPRLKICDFGYSKSSVLHSQPKSTVGTPAYIAPEVLLRQEYDGKIADVWSCGVTLYVMLVGAYPFEDPEEPRDYRKTIQRILSVKYSIPDDIRISPECCHLISRIFVADPATRISIPEIKTHSWFLKNLPADLMNESNTGSQFQEPEQPMQSLDTIMQIISEATIPAVRNRCLDDFMTDNLDLDDDMDDFDSESEIDIDSSGEIVYAL |  |  | binds | binds
SnRK2.2, yeast two-hybrid fusion (enzyme, UniProt Q39192 1-362) MDPATNSPIMPIDLPIMHDSDRYDFVKDIGSGNFGVARLMTDRVTKELVAVKYIERGEKIDENVQREIINHRSLRHPNIVRFKEVILTPSHLAIVMEYAAGGELYERICNAGRFSEDEARFFFQQLISGVSYCHAMQICHRDLKLENTLLDGSPAPRLKICDFGYSKSSVLHSQPKSTVGTPAYIAPEILLRQEYDGKLADVWSCGVTLYVMLVGAYPFEDPQEPRDYRKTIQRILSVTYSIPEDLHLSPECRHLISRIFVADPATRITIPEITSDKWFLKNLPGDLMDENRMGSQFQEPEQPMQSLDTIMQIISEATIPTVRNRCLDDFMADNLDLDDDMDDFDSESEIDVDSSGEIVYAL |  |  | no binding | no binding

From article PMC7246803
